Source: PubChem BioAssay AID686971 (National Center for Advancing Translational Sciences (NCATS), 2013)
The whole screen tested about 360,000 compounds, of which about 7,500 (2.1%) were called active. Inconclusive means that the source gave no clear call. Such entries were picked first, then a sample of the others. The call rests on the fitted dose curve; in most records, active means well fitted cell-killing curve with a large enough effect; inconclusive means small, poorly fitted or top-dose-only effect, or effect the other way, or another doubt; inactive means no such curve, though single readings can be large or run the other way. Potencies of inconclusive entries are left out as doubtful fits.
Potency means the concentration at half of the fitted maximal effect; tags describe the fitted curve by direction and shape.

Experiment: qHTS for induction of synthetic lethality in tumor cells producing 2HG: qHTS for the HT-1080-IDH1KD cell line;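 on activity, negative = toxicity: 0% = DMSO wells and -100% = cell-free medium wells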
Conditions: HT-1080 IDH1 knockdown viability, ATP luminescence, 48 h; activity, negative = toxicity: at 46.1 µM (top of the series) unless noted
Method in brief: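 In this qHTS, HT-1080 cells depleted of IDH1 are exposed for 48 h at 37 °C to compound titrations. Toxicity is scored from CellTiter-Glo luminescence, with DMSO as full viability and medium alone as none.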
In the case of CCOC(=O)/C(C#N)=C/C=C1/C=CC=CN1C, the Potency is reported as inconclusive [rising, partial curve, poor fit].
For O=C(Nc1ccc(Br)cc1Cl)c1ccc2c(=O)n3c(nc2c1)CCC3, the activity, negative = toxicity was inconclusive: -13.1% [cytotoxic].
With CC(C)Nc1ncnc2c1ncn2[C@H]1CN(Cc2ccc(F)cc2)C[C@@H](CO)O1 the Potency was inconclusive [rising, single point].
In the case of COCCNC(=O)C(=O)NCC1OCCN1S(=O)(=O)c1cc(F)ccc1F (centres undefined), the Potency is reported as “inactive”.
With CC(=O)Nc1ccc(S(=O)(=O)Nc2ccc3c(c2)OCCO3)cc1Cl the Potency was inconclusive [cytotoxic, partial curve].
With COC(=O)c1cccc(CC2(C)C(=O)Nc3cc(-c4ccccc4Cl)ccc32)c1 (centres undefined) the Potency was inconclusive [cytotoxic, single point].
For COc1ccc(NC(=O)c2ccc(N3CCCC3=O)cc2)cc1Cl, the activity, negative = toxicity was inconclusive: 18.7%.
For CCCCn1cc(C(=O)c2cc(Br)ccc2O)cc(C#N)c1=O, the Potency was inconclusive [cytotoxic, partial curve].
With C#CCOCCOCCOCCNc1nc(N2CCN(C(=O)CCCCCCCCCCNC(=O)[C@H](CO)n3cc(CCCSC)nn3)CC2)nc(N2CCN(C(=O)CCCCCCCCCCNC(=O)[C@H](CCCN=C(N)N)n3cc(C[C@@H](C)CC)nn3)CC2)n1 the Potency was inconclusive [cytotoxic, single point].
In the case of CC(=O)Nc1ccc(C(=O)N/N=C/c2ccccc2OCc2ccccc2)cc1, the Potency is reported as active: 20.6 µM.
In the case of Cc1cc(C(=O)Nc2ccc(Cl)cc2)c(C)n1Cc1cccs1, the Potency is reported as inconclusive [cytotoxic, partial curve, poor fit].
With CC(C)(C)C(=O)CSc1nc2c(c(-c3cccs3)c1C#N)CCC2 the Potency was “inactive”.
With COc1ccc(Nc2nc(Cl)nc(NCc3ccco3)n2)c(OC)c1 the Potency was “inactive”.
With CC1(C(=O)Nc2cccc(C#N)c2)CCN1C(=O)C1(c2ccccc2)CC1 (centres undefined) the Potency was “inactive”.
With Oc1c(Cl)cc(Cl)cc1CNc1ccc(Br)cn1 the Potency was inconclusive [cytotoxic, single point].
With COc1ccc(CN2CCN(Cc3nc4ccccc4s3)CC2CCO)c(C)c1C (centres undefined) the Potency was inconclusive [cytotoxic, single point].
In the case of Cc1c(Cl)cccc1NC(CC(=O)c1ccccc1)C(=O)O (centres undefined), the Potency is reported as “inactive”.
In the case of COc1ccc(C2CC(=O)C=C(NCc3ccccc3)C2)cc1 (centres undefined), the Potency is reported as active: 18.4 µM.
For COc1ccc(CNC(=O)C(C#N)c2nc3ccccc3nc2N2CCCC2)cc1 (centres undefined), the Potency was “inactive”.
For COc1cccc2c1C(=O)c1c(O)c3c(c(O)c1C2=O)C[C@@](O)(C(=O)CO)C[C@@H]3OC1CC(N)C(O)C(C)O1 (some centres undefined), the Potency was active: 4.61 µM.
With COc1ccc(-c2cccc(NS(=O)(=O)c3cccc([N+](=O)[O-])c3)c2)nn1 the Potency was “inactive”.
In the case of COc1ccc(C(NC(=O)C2CCN(CCOc3ccc(Cl)cc3Cl)CC2)c2cccs2)cc1 (centres undefined), the Potency is reported as inconclusive [cytotoxic, single point].
In the case of COC(=O)CSc1cccc2c1C(=O)CC2c1ccccc1 (centres undefined), the Potency is reported as “inactive”.
For CCn1c(SCC(=O)Nc2ccc3c(c2)oc2ccccc23)nnc1-c1ccc(N)cc1, the Potency was inconclusive [cytotoxic, single point].
In the case of Cc1ccc(-c2nn(-c3ccccc3)cc2/C=N/O)cc1, the Potency is reported as inconclusive [cytotoxic, single point].
For CC(C)(C)C(=O)Nc1ccc(/C=C/C(=O)c2ccco2)cc1, the Potency was active: 23.1 µM.
In the case of Cc1ccc(CSCC(=O)N2CCN(c3ccc(F)cc3)CC2)cc1, the activity, negative = toxicity is reported as inconclusive: -31.1% [cytotoxic].
In the case of COc1ccccc1C(=O)NNC(=S)NC(=O)c1cc(OC)c(OC)c(OC)c1, the Potency is reported as inconclusive [cytotoxic, full curve].
For CC(=O)Oc1c(S(=O)(=O)c2ccc(C)cc2)c(C)nn1C(C)(C)C, the Potency was “inactive”.
With CC(C)c1ccc(C(=O)N2CCCC(c3cc(C(=O)NCc4ccccc4)no3)C2)cc1 (centres undefined) the Potency was inconclusive [cytotoxic, single point].
In the case of Nc1c(C(=O)Nc2ccccc2)sc2nc3c(c(-c4ccco4)c12)CCC3, the Potency is reported as inconclusive [cytotoxic, single point].
With C[C@@H]1CN([C@H](C)CO)S(=O)(=O)c2ccc(Br)cc2O[C@@H]1CN(C)C(=O)Nc1ccc(C(F)(F)F)cc1 the Potency was inconclusive [cytotoxic, single point].
In the case of O=C(Nc1nc2ccccc2s1)c1ccc2c(c1)OCO2, the Potency is reported as inconclusive [cytotoxic, single point].
In the case of O=C(Nc1ccc(CN2CCOCC2)cc1)c1ccc(-c2cc(Cl)ccc2Cl)o1, the Potency is reported as inconclusive [cytotoxic, single point].
In the case of O=C(Nc1ccc(OC(F)F)cc1)Nc1cccc(C(F)(F)F)c1, the Potency is reported as inconclusive [cytotoxic, single point].
In the case of COCC#Cc1ccc2c(c1)O[C@@H](CN(C)C(=O)Nc1ccc(OC)cc1)[C@H](C)CN([C@H](C)CO)S2(=O)=O, the Potency is reported as “inactive”.
For NCCNC(=O)Cn1c(=O)c2c3c(sc2n(Cc2ccccc2)c1=O)CCCC3, the Potency was inconclusive [cytotoxic, partial curve].
With CCN1/C(=C/c2ccc3cccc(C)c3[n+]2CC)Sc2ccccc21 the Potency was active: 3.16 µM.
For COc1ccc(C(O)(C(C)C)C(CN2CCOCC2)c2ccccc2)cc1 (centres undefined), the Potency was “inactive”.
For CCCCCCNC(=O)c1cn(CC)c2cc(N3CCN(C)CC3)c(F)cc2c1=O, the Potency was inconclusive [cytotoxic, single point].
With Fc1ccc(-c2nnc(NC3=NCCCCC3)o2)cc1 the Potency was inconclusive [cytotoxic, single point].
With C=CCN1C(=O)[C@@H]2Cc3c([nH]c4ccccc34)C(c3cc(OC)c(OC)c(OC)c3)N2C1=S (some centres undefined) the Potency was inconclusive [cytotoxic, single point].
In the case of Cc1cc(C)n(-c2cc(-c3ccccc3)nc(C)n2)n1, the Potency is reported as “inactive”.
With Cc1nc2cc(NS(=O)(=O)c3ccccc3F)ccc2s1 the Potency was “inactive”.
